# Data published in the BET-seq Pho4 binding data (Le et al. 2018).
# The list shows a part of the results. Values were computed here from the reads of four pooled replicates and scatter widely.
# Target: T1, Pho4 (S. cerevisiae) (UniProt P07270)
# T1 sequence: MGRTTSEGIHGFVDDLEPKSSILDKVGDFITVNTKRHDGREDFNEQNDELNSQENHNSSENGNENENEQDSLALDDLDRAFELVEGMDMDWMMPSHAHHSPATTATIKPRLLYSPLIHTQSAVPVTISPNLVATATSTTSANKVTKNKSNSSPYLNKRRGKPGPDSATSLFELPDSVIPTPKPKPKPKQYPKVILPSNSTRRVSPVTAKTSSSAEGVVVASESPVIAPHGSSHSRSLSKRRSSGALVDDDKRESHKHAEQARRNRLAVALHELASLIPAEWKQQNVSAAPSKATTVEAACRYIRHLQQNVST
# Assay: relative binding free energy (BET-seq); higher = weaker binding
# Details: reference: library average
row,Sequence,relative binding free energy [kcal/mol]
1,CCATGCACGTGTGGGT,-0.05
2,ATAGGCACGTGATTAA,0.05
3,AGAGTCACGTGTATGA,0.14
4,GCTTGCACGTGGGGGT,-0.07
5,GGTTACACGTGTTAAT,0.41
6,ACGTGCACGTGGTGTA,-0.12
7,TTGTCCACGTGGGATA,-0.11
8,GGGATCACGTGAAGAG,0.3
9,AGATGCACGTGGTTAC,-0.01
10,GTGGGCACGTGGGGCT,-0.17
11,TGATCCACGTGTAGTG,0.05
12,TTTGCCACGTGTTTAA,-0.06
13,AGGGGCACGTGAGAAG,0.03
14,GTCAGCACGTGTAGGT,-0.02
15,AGTAACACGTGTAGAA,0.21
16,ATAGTCACGTGTAATA,0.13
17,TATGTCACGTGTGACG,0.19
18,TTGAGCACGTGCTTAT,-0.1
19,TTTTCCACGTGGATTA,0.18
20,ATGGCCACGTGGGTGT,-0.22
21,TGGTTCACGTGATGGT,0.47
22,TGGCCCACGTGTTGTG,-0.2
23,TGTATCACGTGTGGAG,0.25
24,GTATTCACGTGTGTGA,0.34
25,GTTGACACGTGTTGCG,0.23
26,GGTGTCACGTGACTAT,0.22

row,Sequence,relative binding free energy [kcal/mol]
1,AAGGTCACGTGCATGG,0.15
2,TAATTCACGTGGGCAG,0.22
3,ATGTTCACGTGAGTAC,0.26
4,GCATTCACGTGAGAGT,0.68
5,GGAGCCACGTGTTGCG,0.13
6,TCAGTCACGTGTTATG,0.14
7,TTGGACACGTGGGATT,0.01
8,AATGGCACGTGAAGGT,0.23
9,TGGGGCACGTGGCTTG,-0.13
10,CTGTGCACGTGAATTT,0.28
11,AAAGTCACGTGGGGAG,-0.01
12,GTCAGCACGTGTTTGG,-0.02
13,GGTGGCACGTGTGGAT,-0.07
14,TGATACACGTGCGGGT,0
15,GGGGGCACGTGGGAAA,-0.06
16,GTATACACGTGCGTTT,0.21
17,TGTTTCACGTGCGGAA,0.3
18,AGGGGCACGTGTGTAC,-0.14
19,GACGGCACGTGATGTT,0.03
20,TTTTTCACGTGAGGAT,0.38
21,TCAGGCACGTGATTAT,0.1
22,ATGCACACGTGAGTGG,0.08
23,GGTAGCACGTGGGATT,-0.08
24,TTCGACACGTGTCTGG,0.16
25,TAGTGCACGTGTGTTA,0
26,AAAATCACGTGTATGG,0.11

row,Sequence,relative binding free energy [kcal/mol]
1,TGTTTCACGTGCAGGA,0.11
2,TCGGTCACGTGAAAGT,0.51
3,TTAGGCACGTGTACTT,-0.1
4,TTTTACACGTGGTTGG,0.17
5,TGGTGCACGTGGACTA,-0.1
6,AGCGCCACGTGGGGAG,-0.27
7,AATCGCACGTGTATGT,0
8,ATGTGCACGTGGATGA,-0.19
9,ACAGGCACGTGTAAGG,0.11
10,GGAGACACGTGGTTGA,-0.14
11,TATTTCACGTGGATTT,0.27
12,TTTGACACGTGGGTTG,-0.05
13,TGGAACACGTGACGGG,0.25
14,AATGTCACGTGGCTTT,0.07
15,TACGTCACGTGTAGTG,0.06
16,AATTTCACGTGGTGGC,0.27
17,TAGGGCACGTGTTACG,-0.14
18,ATTATCACGTGGGTGA,0.08
19,TGTTGCACGTGCTGTG,-0.01
20,ATGTTCACGTGGACTG,0.13
21,AAATGCACGTGTTTGT,0
22,ATAATCACGTGGGTTT,0
23,GTGTACACGTGGGGAT,-0.01
24,TCTAGCACGTGGGTAA,-0.17
25,GGGGCCACGTGTGAGT,0.03
26,ATTACCACGTGAGTTT,0.29

row,Sequence,relative binding free energy [kcal/mol]
1,CAGAGCACGTGTAGGG,-0.2
2,ATGTTCACGTGCGAGA,0.31
3,GTTTGCACGTGGACGA,0.06
4,GGTTGCACGTGTGGGT,0.09
5,ATAGGCACGTGGCAGA,-0.17
6,GACAGCACGTGTGTGG,0.11
7,TATCACACGTGTATGT,0
8,ATGGTCACGTGGAATA,0.13
9,TATATCACGTGAAGGC,0.36
10,GGTGACACGTGAAGAA,0.35
11,GTCTTCACGTGTAGAT,0.35
12,TGTGGCACGTGACGGG,0.09
13,TATATCACGTGTTTAT,0.11
14,AGTGTCACGTGCGTGG,-0.09
15,CATTTCACGTGAGATG,0.62
16,TTTTTCACGTGTAGGA,0.34
17,GTCGTCACGTGTTAGA,0.1
18,GTAAGCACGTGTAGGC,-0.08
19,GGGTGCACGTGGGACT,-0.15
20,GATAGCACGTGGGGGA,-0.26
21,ATATTCACGTGTGTAA,0.22
22,TAGAGCACGTGTGGTC,-0.25
23,TGCTTCACGTGTGTAT,0.13
24,CATTGCACGTGTGATG,0.09
25,AGGGTCACGTGGCCCG,0.06
26,TATAACACGTGGTTAT,-0.22

row,Sequence,relative binding free energy [kcal/mol]
1,TGGTTCACGTGAGTCT,0.34
2,TGTCTCACGTGGGACA,0.34
3,TATATCACGTGAGGAT,0.37
4,GTGGCCACGTGTGCGG,-0.06
5,TGGTACACGTGTTGCT,0.13
6,AGTATCACGTGGACAG,0.11
7,TATGTCACGTGGTATA,0.01
8,ATAATCACGTGAGGTA,0.36
9,TAAAGCACGTGAATGG,0.37
10,GGGAGCACGTGGGAGG,-0.11
11,GGTTGCACGTGTCGTG,0.08
12,ACCGGCACGTGGGAGG,-0.09
13,TGATTCACGTGGAGGT,0.39
14,GGTTTCACGTGTAGTC,0.25
15,GTTGGCACGTGAGTCG,0.11
16,TGGTACACGTGGAAAT,0.2
17,ATTGACACGTGTTAGG,0
18,CGCTTCACGTGTGAGG,0.17
19,GTGGCCACGTGCGGAG,-0.16
20,CGCGGCACGTGAAGTA,0.21
21,TGGGTCACGTGCGGTT,0.1
22,GAAGGCACGTGTTAGC,0.04
23,TAAGCCACGTGTTTTG,0.03
24,AAAGCCACGTGGAGGG,-0.15
25,GGGTTCACGTGGTGAC,0.33
26,CTGGCCACGTGGTGTT,-0.23

row,Sequence,relative binding free energy [kcal/mol]
1,CGTGACACGTGCAGGG,-0.06
2,GGAGGCACGTGAGATG,0.22
3,GTGTTCACGTGTTTGA,0.24
4,TGGTTCACGTGTTTGG,0.25
5,GGGTGCACGTGGCAAG,-0.05
6,AGTGTCACGTGTGCAG,0
7,GGTCTCACGTGTGATA,0.19
8,TCGTGCACGTGGGCGC,-0.16
9,TTGAACACGTGCGTAG,-0.09
10,TATAACACGTGTGGGT,0.1
11,GTGTTCACGTGGTGGA,0.29
12,GTAGTCACGTGGTTAG,0.03
13,ACATTCACGTGTGGTT,0.1
14,ATAGGCACGTGGGAAG,-0.23
15,ATGTACACGTGTAAGT,0.05
16,GTGTGCACGTGCGGGT,-0.01
17,TGCTTCACGTGGTGAA,0.2
18,ATCATCACGTGTGTAG,0.15
19,AGAAGCACGTGGGGTC,-0.14
20,AGCGACACGTGATGGG,0.34
21,AGTAGCACGTGTAGAG,0.08
22,GATTACACGTGTCTGG,0.2
23,GTAGACACGTGGGCAT,-0.15
24,TGCATCACGTGTTTGG,0.14
25,TGGTACACGTGGCTAT,-0.06
26,TTAATCACGTGCGGAG,0.38

row,Sequence,relative binding free energy [kcal/mol]
1,GTCGTCACGTGGCGGT,0.16
2,GGCCGCACGTGCGGGG,-0.18
3,TACTTCACGTGTGAGT,0.24
4,TACGTCACGTGTTTGA,0.03
5,TATTTCACGTGGGAGA,0.24
6,AAGCGCACGTGGCGTG,-0.19
7,GTTTTCACGTGCGCGT,0.18
8,GGTGTCACGTGTGCCT,0.04
9,AGTAGCACGTGAGTGA,0.28
10,CAGGTCACGTGTTGTG,0.06
11,CATAGCACGTGATGGT,-0.01
12,TAGTTCACGTGCTAGT,0.26
13,TGTGTCACGTGAGAGG,0.29
14,GGGTACACGTGGTGAA,0.09
15,GTACGCACGTGTGGGA,-0.04
16,GGTGACACGTGGGTTT,-0.02
17,GGATTCACGTGGATGG,0.33
18,TGTGGCACGTGGAGGA,-0.06
19,AGTTTCACGTGGTACG,0.26
20,TACATCACGTGGGTGA,-0.08
21,ACTGGCACGTGGTCTG,-0.13
22,CGAGTCACGTGGTAGT,-0.05
23,CTCTGCACGTGTTGTG,-0.15
24,GTGGTCACGTGATCGC,0.25
25,TCGTGCACGTGGATCG,0.1
26,GTTAACACGTGGTAGG,0

row,Sequence,relative binding free energy [kcal/mol]
1,GTTTGCACGTGAAGAT,0.21
2,AGATTCACGTGCGGTT,0.35
3,TCTGTCACGTGTGGTA,0.1
4,GTTAGCACGTGGGGGA,-0.09
5,ACTGGCACGTGGGGTC,-0.14
6,AAGGTCACGTGGGAGG,0.08
7,ACTGTCACGTGGTTTT,0.21
8,GTGGGCACGTGGACTA,-0.05
9,TGTGGCACGTGATCAT,-0.04
10,ATGCTCACGTGTAGGT,0.06
11,TTTATCACGTGATAGT,0.17
12,TCAATCACGTGGGGAG,0.01
13,GGTATCACGTGGGTTA,0.06
14,TGGTACACGTGTGAAG,0.1
15,AAGCACACGTGGGTGG,-0.12
16,GGAAACACGTGTAGGT,0.17
17,TAGGTCACGTGGCGAT,-0.06
18,TGGTGCACGTGTAGGC,0.04
19,TCTGTCACGTGGTTCT,0.04
20,TTATGCACGTGCTTAA,0.02
21,ATCATCACGTGGGATT,0.09
22,TAGCTCACGTGGTAGT,0.08
23,GGGAGCACGTGTAGCT,-0.19
24,TGGGACACGTGGTCAT,-0.14
25,TTAGGCACGTGCCGGG,-0.22
26,TTTGTCACGTGCAGGT,-0.04

row,Sequence,relative binding free energy [kcal/mol]
1,AGGGTCACGTGACATG,0.09
2,TGAGGCACGTGATCAT,-0.08
3,AAATTCACGTGAGTGG,0.38
4,TGCTGCACGTGTAAGA,0.17
5,CGGCGCACGTGAGTGT,0.11
6,TGGTACACGTGACAGG,0.14
7,AGAGTCACGTGGCAGG,-0.01
8,ATAATCACGTGTAGGA,0.16
9,TGATGCACGTGATGCG,0.14
10,CGTAGCACGTGGTTCT,0.03
11,AGTGTCACGTGAGAAA,0.18
12,ATTTACACGTGAAGTT,0.29
13,GTGCACACGTGGGGCT,0.01
14,TTTGACACGTGAGGCG,0.33
15,TTGAACACGTGAGTGG,0.21
16,GTTTGCACGTGGTATA,-0.06
17,GGGCTCACGTGGGTAC,0.16
18,TTGAGCACGTGTATGT,-0.09
19,GCGGGCACGTGGTGGG,-0.08
20,TTTATCACGTGGTCAG,0.11
21,TTGAACACGTGTATTT,0.1
22,TCTTGCACGTGACGTG,0.17
